# Laboratory results: the supplement of paper PMC11348887
# Structures can show the parent of a compound that is named as a salt. The list shows a part of the results. No stated cut-off is given here; in the data, active = -2 or less and inactive = the rest. Many values rest on one well or one pass, so single values are uncertain.
# Test system: hPSC-derived cortical neurons (WA09)
# Assay: nuclei number (viability) z-score; higher = more surviving cells
# Settings: 5 µM; treatment: days 7-14 after plating, readout day 21
# 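Further: nuclei counted from DAPI counterstain by automated high-content image analysis, four fields per well at ×20 in 384-well plates, with sequential b-score then z-score normalization.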
row,Structure (SMILES),nuclei number (z-score)
1,O=C(Nc1c[nH]nc1-c1nc2ccc(CN3CCOCC3)cc2[nH]1)NC1CC1,inactive: 1.42
2,O=C(c1cccc(Cl)c1F)N1CCN(Cc2cccc(Nc3nccs3)n2)CC1,inactive: 0.776
3,CC(C)[C@H]1C(=O)N[C@@H](CCCNC(=N)N)C(=O)NCC(=O)N[C@@H](CC(=O)O)C(=O)N[C@H](Cc2ccccc2)C(=O)N1C [Cilengitide],inactive: 2.78
4,COc1cccc(NC(=O)/C=C/c2ccc(Cl)cc2)c1,inactive: -0.441
5,COc1cc(OC)c2c(=O)[nH]c(-c3cc(C)c(OCCO)c(C)c3)nc2c1,inactive: 1.06
6,CO/N=C(\C(=O)N[C@@H]1C(=O)N2C(C(=O)O)=C(CSc3nc(=O)c(O)nn3C)CS[C@H]12)c1csc(N)n1 [Ceftriaxone Sodium Trihydrate],inactive: -0.237
7,NC(=O)CC[C@@H](N)C(=O)O [D-glutamine],inactive: 0.707
8,Cc1ccc(C(=O)Nc2ccc(CN3CCN(C)CC3)c(C(F)(F)F)c2)cc1C#Cc1cnc2cccnn12,active: -3.85
9,O=C(Nc1cccc2c(=O)cc(-c3nnn[nH]3)oc12)c1ccc(OCCCCc2ccccc2)cc1 [Pranlukast],inactive: 0.739
10,CC(C)(C)NC[C@H](O)COc1nsnc1N1CCOCC1 [Timolol Maleate],inactive: 1.09
11,NCCCC[C@H](N[C@@H](CCc1ccccc1)C(=O)O)C(=O)N1CCC[C@H]1C(=O)O [Lisinopril],inactive: 1.24
12,Cc1cncc(CN2CCC(=C3c4ccc(Cl)cc4CCc4cccnc43)CC2)c1 [Rupatadine Fumarate],inactive: 0.729
13,CS(=O)(=O)c1ccc([C@@H](O)[C@@H](CO)NC(=O)C(Cl)Cl)cc1 [Thiamphenicol],inactive: -0.132
14,CNC(=O)c1ccccc1Oc1nc(Nc2cc(OC)c(OC)c(OC)c2)ncc1Br,inactive: -0.206
15,C[C@]12C=CC(=O)C=C1CC[C@@H]1[C@@H]2[C@@H](O)C[C@@]2(C)[C@H]1CC[C@]2(O)C(=O)CO [Prednisolone],inactive: 1.11
16,O=c1ncn2nc(Sc3ccc(F)cc3F)ccc2c1-c1c(Cl)cccc1Cl,inactive: 0.426
17,O=c1[nH]cc(F)c(=O)[nH]1 [Fluorouracil (5-Fluoracil_ 5-FU)],inactive: 1.63
18,N=c1ccn2c(n1)O[C@H]1[C@H](O)[C@@H](CO)O[C@H]12 [Cyclocytidine HCl],inactive: -1.64
19,CNC(=O)c1ccc2cc([C@@]3(O)CCn4cncc43)ccc2c1 [TAK-700 (Orteronel)],inactive: -1.67
20,CC(=O)Oc1cc(C(F)(F)F)ccc1C(=O)O [Triflusal],inactive: -0.113
21,Cc1cccc(Nc2nc(NC3CCCCC3N)ncc2C(N)=O)c1 (configuration not stated),inactive: 0.0987
22,C[C@@H]1CC(=O)NN=C1c1ccc(NN=C(C#N)C#N)cc1 [Levosimendan],inactive: -0.742
23,CN(C)CCCNC(=O)c1ccc(-c2cc(O)c3ncccc3c2)cc1,inactive: 0.676
24,C[C@@H](c1ncncc1F)[C@](O)(Cn1cncn1)c1ccc(F)cc1F [Voriconazole],inactive: 0.0924

row,Structure (SMILES),nuclei number (z-score)
1,Cc1c(NC(=O)c2ccc(C(C)(C)C)cc2)cccc1-c1cn(C)c(=O)c(Nc2ccc(C(=O)N3CCOCC3)cc2)n1,inactive: 1.89
2,O=C(O)Cc1ccccc1Nc1c(Cl)cccc1Cl [Diclofenac Sodium],inactive: -0.141
3,O=C(O)Cc1ccccc1Nc1c(Cl)cccc1Cl [Diclofenac Potassium],inactive: 1.4
4,O=C(O)Cc1ccccc1Nc1c(Cl)cccc1Cl [Diclofenac Diethylamine],inactive: 0.632
5,CC[C@@]1(O)C(=O)OCc2c1cc1n(c2=O)Cc2cc3cc(O)ccc3nc2-1 [(S)-10-Hydroxycamptothecin],inactive: -0.888
6,CC[C@H](C)n1cc(C)c2c(C(=O)NCc3c(C)cc(C)[nH]c3=O)cc(-c3ccc(N4CCNCC4)nc3)cc21,inactive: -0.00847
7,Nc1cccc(S(=O)(=O)N2CCCN(S(=O)(=O)c3ccc4c(c3)OCCO4)CC2)c1,active: -2.66
8,Cc1cccc(-c2[nH]c(C(C)(C)C)nc2-c2ccc3nccnc3c2)n1,inactive: 5.12
9,CN1CCN(CCCNc2ncc(Cl)c(-c3cc4c(C(=O)NC5CC5)cccc4s3)n2)CC1,inactive: -0.0302
10,NC(=O)c1noc([C@H](CCCC2CCCCC2)CC(=O)NO)n1,inactive: -0.134
11,NC1(c2ccc(-c3nc4ccn5c(=O)[nH]nc5c4cc3-c3ccccc3)cc2)CCC1,inactive: -0.965
12,Cc1cnc(Nc2ccc(N3CCN(C)CC3)cc2)nc1Nc1cccc(S(=O)(=O)NC(C)(C)C)c1,inactive: -1.02
13,OC[C@@H](O)[C@@H](O)CO [Erythritol],inactive: 0.193
14,O=C1NC(=O)/C(=C/c2ccc(-c3ccc(F)cc3O)o2)S1,inactive: 2.12
15,CC(C)CCN1c2nc(Nc3cc(F)c(O)c(F)c3)ncc2N(C)C(=O)C1C (configuration not stated),inactive: 0.514
16,CCn1c(=O)c(-c2ccc(-c3cncs3)cc2Cl)cc2cnc(Nc3ccc(N4CCN(C)CC4)cc3)nc21,inactive: -1.86
17,NS(=O)(=O)c1cc2c(cc1Cl)N=C(CSCc1ccccc1)NS2(=O)=O [Benzthiazide],inactive: -0.508
18,Nc1ccc(S(=O)(=O)Nc2ncccn2)cc1 [Sulfadiazine],inactive: 1.1
19,Nc1ccc(S(=O)(=O)Nc2ncccn2)cc1 [Sodium sulfadiazine],inactive: 2.03
20,CCCC(C)NC(=O)c1ccc(Cl)c(Cl)c1 (configuration not stated),inactive: 0.343
21,CNC1CCC(N(Cc2cccc(-c3ccncc3)c2)C(=O)c2sc3ccccc3c2Cl)CC1 (configuration not stated) [Smoothened Agonist (SAG) HCl],inactive: -0.668
22,CC(C)[C@H](C(=O)Nc1ccc(C(=O)NO)cc1)c1ccccc1,active: -7.66
23,C#C[C@]1(OC(C)=O)CC[C@H]2[C@@H]3CCC4=C[C@@H](OC(C)=O)CC[C@@H]4[C@H]3CC[C@@]21C [Ethynodiol diacetate],inactive: 0.0157
